In patent US20080138834A1, “Cellular antagonists of GPCR physiology” (Institute Pasteur Korea, priority 2006, published 2008):

Columns and labels:
endothelin A receptor [1] = conditions: for effect on agonist dependent ETAR endocytosis (phenotype) / ETAR endocytosis/internalization compared to control: 10 μM compound; for effect on agonist dependent ETAR endocytosis (phenotype): 40 nM endothelin-1; for ETAR endocytosis/internalization compared to control: endothelin stimulated; for increase in number of ETAR positive endosomes per cell at the cell periphery: co-treated with erbstatin A or nocodazole
endothelin A receptor [2] = assay: Single cell visual screening: ETAR internalization in ETAR:GFP expressing cells; assay type: cell-based, human; conditions: 10 μM compound, 40 nM endothelin
Experimental: Single cell differential screening. […] (b) 10 μM Erbstatin A. (c) 10 μM H-89 (d) DMSO (e) 40 nM endothelin-1 alone. Confocal images are from a 1 μm Z section. […] Scale bar 5 μm.
The effect of the 3 kinase inhibitors affecting ETAR on receptor activation and housekeeping endocytosis were simultaneously imaged in ETAR: GFP expressing cells by internalization of red fluorescent dextran (FIG. 3). […] Thus, inhibition of protein kinase A and C second messenger activated kinases potently altered ETAR GPCR internalization but left housekeeping endocytosis unaffected.

Row | effect on agonist dependent ETAR endocytosis (phenotype) (endothelin A receptor [1]) | SMILES | ETAR localisation after ET-1 stimulation, single cell imaging (endothelin A receptor [2]) | ETAR endocytosis/internalization compared to control (endothelin A receptor [1]) | increase in number of ETAR positive endosomes per cell at the cell periphery (endothelin A receptor [1]) | other results
1 |  | Cn1c2ccccc2c2c3c(c4c5ccccc5n(CCC#N)c4c21)CNC3=O [Gö 6976] |  |  |  | ETAR internalization (endothelin A receptor [1]; 1 μM compound): inhibited
2 | ETAR arrest at the cell surface | Cn1cc(C2=C(c3cn(CCCSC(=N)N)c4ccccc34)C(=O)NC2=O)c2ccccc21 [Ro 31-8220] | arrested ETAR at the plasma membrane |  |  | phorbol ester stimulation of ETAR internalization, simultaneous treatment with PMA (endothelin A receptor [1]; 100 nM PMA plus 10 μM RO 31 8220): reduced to the negative control level
3 |  | O=S(=O)(NCCNC/C=C/c1ccc(Br)cc1)c1cccc2cnccc12 [H-89] | increased delivery of the receptor to the recycling endosome | 1.25 fold | 1.5 fold | dose-response curve to ET-1 in the ETAR assay (endothelin A receptor [1]; cells treated with H-89): increased the slope of the dose-response curve
4 | ETAR arrest at the cell surface | CCCCCCCCCCCCCCCC(=O)OC(CC(=O)O)C[N+](C)(C)C.[Cl-] (stereo not drawn) [Palmitoyl DL carnitine chloride] |  |  |  | 

Row | SMILES | effect on agonist dependent ETAR endocytosis (phenotype) (endothelin A receptor [1]) | ETAR localisation after ET-1 stimulation, single cell imaging (endothelin A receptor [2]) | ETAR endocytosis/internalization compared to control (endothelin A receptor [1]) | increase in number of ETAR positive endosomes per cell at the cell periphery (endothelin A receptor [1]) | other results
5 | CCCCCCOC(=O)[C@]1(O)C[C@@H]2O[C@@]1(C)n1c3ccccc3c3c4c(c5c6ccccc6n2c5c31)C(=O)NC4 [KT5720] | accumulated in the recycling endosome |  | > 1.5 fold | 1.5 fold | 
